# The supplement of paper PMC8728848
# Some of the results follow.
# Columns and labels:
# Assay in all cases: glycan array binding signal (z-score within array); higher = stronger binding
# Settings in all cases: glycan notation: IUPAC condensed, linker removed
# [1] = biological target: Man(a1-3)[Man(a1-6)]Man(a1-6)[Man(a1-2)Man(a1-3)]Man(b1-4)GlcNAc(b1-4)GlcNAc
# In short: (§1)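 Glycan array binding is given as a within-array Z-score, which can be read as non-binding when negative. The arrays, 3228 of them, came from the Consortium for Functional Glycomics database and were retained only where the protein sequence was available. Z-scores were averaged across arrays of the same protein sequence at different concentrations or buffers and across linkers.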
# [2] = biological target: Man(a1-3)[Man(a1-6)]Man(a1-6)[Man(a1-3)]Man
# In short: as §1
# [3] = biological target: Man(a1-3)[Man(a1-6)]Man(a1-6)[Man(a1-3)]Man(b1-4)GlcNAc(b1-4)GlcNAc
# In short: as §1
# [4] = biological target: Man(a1-3)[Man(a1-6)]Man(b1-4)GlcNAc(b1-4)GlcNAc
# In short: as §1
# [5] = biological target: Man(a1-3)[Man(a1-6)]Man(b1-4)GlcNAc(b1-4)[Fuc(a1-6)]GlcNAc
# In short: as §1
# [6] = biological target: Man(a1-6)Man
# In short: as §1
# [7] = biological target: Man(b1-4)GlcNAc
# In short: as §1
# [8] = biological target: MurNAc(b1-4)GlcNAc
# In short: as §1
# [9] = biological target: Neu5Ac(a2-3)Gal
# In short: as §1
# [10] = biological target: Neu5Ac(a2-3)Gal(b1-3)GalNAc
# In short: as §1
# [11] = biological target: Neu5Ac(a2-3)Gal(b1-3)GalNAc(b1-3)Gal(a1-4)Gal(b1-4)Glc
# In short: as §1
# [12] = biological target: Neu5Ac(a2-3)Gal(b1-3)GalNAc(b1-4)[Neu5Ac(a2-3)]Gal(b1-4)Glc
# In short: as §1
# [13] = biological target: Neu5Ac(a2-3)Gal(b1-3)GalNAc(b1-4)[Neu5Ac(a2-8)Neu5Ac(a2-3)]Gal(b1-4)Glc
# In short: as §1
# [14] = biological target: Neu5Ac(a2-3)Gal(b1-3)GalNAc6S
# In short: as §1
# [15] = biological target: Neu5Ac(a2-3)Gal(b1-3)GlcNAc
# In short: as §1
# [16] = biological target: Neu5Ac(a2-3)Gal(b1-3)GlcNAc(b1-2)Man
# In short: as §1
# [17] = biological target: Neu5Ac(a2-3)Gal(b1-3)GlcNAc(b1-2)Man(a1-3)[GlcNAc(b1-4)][Neu5Ac(a2-3)Gal(b1-3)GlcNAc(b1-2)Man(a1-6)]Man(b1-4)GlcNAc(b1-4)GlcNAc
# In short: as §1
# [18] = biological target: Neu5Ac(a2-3)Gal(b1-3)GlcNAc(b1-2)Man(a1-3)[Neu5Ac(a2-3)Gal(b1-3)GlcNAc(b1-2)Man(a1-6)]Man(b1-4)GlcNAc(b1-4)GlcNAc
# In short: as §1
# [19] = biological target: Neu5Ac(a2-3)Gal(b1-3)GlcNAc(b1-3)Gal(b1-3)GlcNAc
# In short: as §1
# [20] = biological target: Neu5Ac(a2-3)Gal(b1-3)GlcNAc(b1-3)Gal(b1-4)GlcNAc
# In short: as §1
# [21] = biological target: Neu5Ac(a2-3)Gal(b1-3)GlcNAc(b1-3)GalNAc
# In short: as §1
# [22] = biological target: Neu5Ac(a2-3)Gal(b1-3)GlcNAc(b1-4)Gal(b1-4)Glc
# In short: as §1
# [23] = biological target: Neu5Ac(a2-3)Gal(b1-3)GlcNAc(b1-6)GalNAc
# In short: as §1
# [24] = biological target: Neu5Ac(a2-3)Gal(b1-3)GlcNAc6S
# In short: as §1
# [25] = biological target: Neu5Ac(a2-3)Gal(b1-3)[Fuc(a1-4)]GlcNAc
# In short: as §1
# [26] = biological target: Neu5Ac(a2-3)Gal(b1-3)[Fuc(a1-4)]GlcNAc(b1-3)Gal(b1-3)[Fuc(a1-4)]GlcNAc
# In short: as §1
# [27] = biological target: Neu5Ac(a2-3)Gal(b1-3)[Fuc(a1-4)]GlcNAc(b1-3)Gal(b1-4)[Fuc(a1-3)]GlcNAc
# In short: as §1
# [28] = biological target: Neu5Ac(a2-3)Gal(b1-3)[GlcNAc(b1-6)]GalNAc
# In short: as §1
# [29] = biological target: Neu5Ac(a2-3)Gal(b1-3)[Neu5Ac(a2-3)Gal(b1-4)]GlcNAc
# In short: as §1
# [30] = biological target: Neu5Ac(a2-3)Gal(b1-3)[Neu5Ac(a2-6)]GalNAc
# In short: as §1
# [31] = biological target: Neu5Ac(a2-3)Gal(b1-3)[Neu5Ac(a2-6)]GlcNAc(b1-3)[Fuc(a1-3)[Gal(b1-4)]GlcNAc(b1-6)]Gal(b1-4)Glc
# In short: as §1
# [32] = biological target: Neu5Ac(a2-3)Gal(b1-3)]Neu5Ac(a2-3)Gal(b1-4)]GlcNAc
# In short: as §1
# [33] = biological target: Neu5Ac(a2-3)Gal(b1-4)Glc
# In short: as §1
# [34] = biological target: Neu5Ac(a2-3)Gal(b1-4)GlcNAc
# In short: as §1
# [35] = biological target: Neu5Ac(a2-3)Gal(b1-4)GlcNAc(b1-2)Man
# In short: as §1
# [36] = biological target: Neu5Ac(a2-3)Gal(b1-4)GlcNAc(b1-2)Man(a1-3)[GlcNAc(b1-4)][Neu5Ac(a2-3)Gal(b1-4)GlcNAc(b1-2)Man(a1-6)]Man(b1-4)GlcNAc(b1-4)GlcNAc
# In short: as §1
# [37] = biological target: Neu5Ac(a2-3)Gal(b1-4)GlcNAc(b1-2)Man(a1-3)[Neu5Ac(a2-3)Gal(b1-4)GlcNAc(b1-2)Man(a1-6)]Man(b1-4)GlcNAc(b1-4)GlcNAc
# In short: as §1
# [38] = biological target: Neu5Ac(a2-3)Gal(b1-4)GlcNAc(b1-2)Man(a1-3)[Neu5Ac(a2-3)Gal(b1-4)GlcNAc(b1-2)Man(a1-6)]Man(b1-4)GlcNAc(b1-4)[Fuc(a1-6)]GlcNAc
# In short: as §1
binder,measurement,setting,value
"Epa7 (Candida glabrata), Q6DTM6_CANGB (protein) MGSSHHHHHHSSGLVPRGSHMKDDYSSFLSNNNLGWTDPTEFPLGCSPNVTTPKNGLSMELYSYDLRKNGSYPCWDAAYLDPNYPRTGYKSHRLLAKVDGVTGNINFYYHATKGCTPEIDHLPASYNYPKPLTMTNFTMLLYGYFKPKVTGYHTFTISADDLLFVNFGAGNAFDCCKRESSADDFGNYQAYAVWGSQTAKDDLTVHLDAGLYYPIRIFFNNREYDAELSLTLKTESDSNPVIDFSDYFYSFDDTKDGCPGLVSYDTS",glycan array binding signal (z-score),[1],-0.223
same,glycan array binding signal (z-score),[2],-0.226
same,glycan array binding signal (z-score),[3],-0.255
same,glycan array binding signal (z-score),[4],-0.245
same,glycan array binding signal (z-score),[5],-0.229
same,glycan array binding signal (z-score),[6],-0.239
same,glycan array binding signal (z-score),[7],-0.255
same,glycan array binding signal (z-score),[8],-0.238
same,glycan array binding signal (z-score),[9],-0.258
same,glycan array binding signal (z-score),[10],-0.208
same,glycan array binding signal (z-score),[11],-0.251
same,glycan array binding signal (z-score),[12],-0.252
same,glycan array binding signal (z-score),[13],-0.06
same,glycan array binding signal (z-score),[14],-0.224
same,glycan array binding signal (z-score),[15],-0.26
same,glycan array binding signal (z-score),[16],-0.228
same,glycan array binding signal (z-score),[17],-0.201
same,glycan array binding signal (z-score),[18],-0.233
same,glycan array binding signal (z-score),[19],-0.256
same,glycan array binding signal (z-score),[20],-0.261
same,glycan array binding signal (z-score),[21],-0.21
same,glycan array binding signal (z-score),[22],-0.228
same,glycan array binding signal (z-score),[23],-0.204
same,glycan array binding signal (z-score),[24],-0.252
same,glycan array binding signal (z-score),[25],-0.258
same,glycan array binding signal (z-score),[26],-0.196
same,glycan array binding signal (z-score),[27],-0.242
same,glycan array binding signal (z-score),[28],-0.23
same,glycan array binding signal (z-score),[29],-0.266
same,glycan array binding signal (z-score),[30],0.014
same,glycan array binding signal (z-score),[31],-0.199
same,glycan array binding signal (z-score),[32],-0.228
same,glycan array binding signal (z-score),[33],-0.257
same,glycan array binding signal (z-score),[34],-0.26
same,glycan array binding signal (z-score),[35],-0.205
same,glycan array binding signal (z-score),[36],-0.229
same,glycan array binding signal (z-score),[37],-0.244
same,glycan array binding signal (z-score),[38],-0.232
